Assay results reported in the RNAGym collection of RNA variant scans (doi:10.7554/elife.90254).
The source gives no read counts; variants with many changes may rest on few reads.

B1: LINE1-mini (parent)
chain: GGCAGAGCUCAACACAGCGUGGCAAAGUGGCUGUGGCUAGACUGCC

Variants of: B1
Assay: self-cleavage, relative activity (ratio to wild type); higher = more cleavage; in vitro, sequencing; the parent is a self-cleaving ribozyme

Variant | self-cleavage
U9A C10G C31A G40U U43C | 0.03
U9A C10G G19C G36U | 0.04
U9A C10G G30C | 0.02
U9A C10G G40C | 0.01
U9A C10U A12C A41G | 0
U9A C10U G21U | 0.03
U9A C10U G22A G44C | 0.03
U9A C10U U20G G27U U38A | 0.04
U9A C13A A14G U32A | 0.26
U9A C13A A16C G21C C37G | 0.13
U9A C13A G21U C45G | 0.13
U9A C13A G29U C45U | 0.34
U9A C13A U20C G27C G30U | 0.05
U9A C13G A14G U20A G40A | 0.24
U9A C13G C18G G22U C42A | 0.08
U9A C13G C23U | 0.1
U9A C13G C46A | 0.14
U9A C13U A16U G19U C42U | 0.19
U9A C13U C15U A16C A25C | 0.3
U9A C13U C15U A26G | 0.03
U9A C13U C18G U43C | 0.3
U9A C13U C23U C45A | 0.09
U9A C13U U28C A39U | 0.17
U9A C15A A16G C31U G36C A41G C42A | 0

Variant | self-cleavage
U9A C15A C18U | 0.05
U9A C15A U43C | 0.23
U9A C15G A24G G30U U32G G40C | 0.12
U9A C15G G17A | 0.03
U9A C15G G21U A25C C46A | 0.32
U9A C15G G27A | 0.01
U9A C15G G30U U43A | 0.19
U9A C15G G40A | 0.07
U9A C15G U20A | 0.11
U9A C15G U20A G44A | 0.3
U9A C15G U38C | 0.17
U9A C15U A24U A25C G29U G33U A41U | 0.28
U9A C15U G21C C23U G27C | 1.12
U9A C15U G44A | 0.92
U9A C15U G44C | 0.16
U9A C18A A24G G36C G40U | 0.01
U9A C18A C23U G35C C37G U43G | 0.09
U9A C18A G40U | 0.07
U9A C18A U28G A41U | 0.13
U9A C18G A39G | 0.02
U9A C18G A41G | 0.2
U9A C18G C31G | 0.02
U9A C18G G21A | 0.07
U9A C18G G27C | 0.15

Variant | self-cleavage
U9A C18U G19U U38A G40C C42A | 0.03
U9A C18U G22U | 0.07
U9A C23A A24U G27C C37U G40U | 0.03
U9A C23G G27U | 0.12
U9A C23G G33C U34A | 0.27
U9A C23G U32C A41C | 0.02
U9A C23U C45A | 0.11
U9A C23U U28G G44A | 0.12
U9A C31A C37G U38C | 0.01
U9A C31G C37A | 0.03
U9A C31U C46U | 0.03
U9A C31U U43A | 0.05
U9A C37G C46A | 0.05
U9A C37U U43A | 0.01
U9A C42A G44U | 0.54
U9A G17A A24C G27A U32G | 0.05
U9A G17A A26U | 0.02
U9A G17A G30C G44C | 0.01
U9A G17A G33U A39C | 0.02
U9A G17A U38C | 0.03
U9A G17C A25G G36U | 0.12
U9A G17C A26C G30C G33U | 0.02
U9A G17C G30A C46U | 0.15
U9A G17C G30A G35C | 0.02

Variant | self-cleavage
U9A G17C U34G | 0.06
U9A G17U A24G A39C | 0.02
U9A G17U A26G G36U | 0.06
U9A G17U C18U A26G | 0.03
U9A G17U G19C | 0.19
U9A G19A C23A | 0.28
U9A G19A C45A | 0.28
U9A G19C A25C | 0.09
U9A G19C C37G | 0.07
U9A G19C G44A | 0.02
U9A G19C U20A | 0.05
U9A G19U C31U G44C | 0.01
U9A G19U G21U C23U | 0.04
U9A G19U G29A G36C | 0
U9A G19U G35U | 0.13
U9A G19U G44U | 0.06
U9A G19U U28A | 0.04
U9A G19U U28G G33A | 0.08
U9A G21A C31U | 0.04
U9A G21A C37U | 0.15
U9A G21A C42A | 0.38
U9A G21A G36C C46G | 0.07
U9A G21C C31U U38G G44U | 0
U9A G21C C37A A39C C45G | 0.04

Variant | self-cleavage
U9A G21C G27U | 0.22
U9A G21C G27U G35U A39C | 0.04
U9A G21C G35U A41G | 0.27
U9A G21C U43G G44C | 0.04
U9A G21U A24U C46U | 0.07
U9A G21U A26U | 0.75
U9A G21U C37G | 0.06
U9A G21U G35U | 0.04
U9A G21U G40C G44A | 0.28
U9A G21U G44U | 0.13
U9A G21U U34C G35A | 0.07
U9A G22A A39U C45U | 0.04
U9A G22A C23A G27C A41G C42G | 0.44
U9A G22A C31U | 0.02
U9A G22A G29U G30A U43A | 0.13
U9A G22A U28C | 0.13
U9A G22C A24G G35U A41C | 0.06
U9A G22C C37G | 0
U9A G22U G40C | 0.07
U9A G22U G44A C45A | 0.3
U9A G27A C31A C37U | 0.23
U9A G27A G40U | 0.14
U9A G27C C42A | 0.02
U9A G27C C46G | 0.25

Variant | self-cleavage
U9A G27U C45G | 0.15
U9A G27U G29A A39C | 0.01
U9A G27U G36U A41G | 0.05
U9A G27U U38A G40A | 0.13
U9A G29A C45G | 0.72
U9A G29A G35U | 1.34
U9A G29U A41C U43C | 0.04
U9A G29U G30U | 0.19
U9A G29U G35U | 0
U9A G29U U34A U38A C45A | 0.66
U9A G30A G33C | 0.01
U9A G30C G33C G36U A39U C42G C46A | 0
U9A G30C G36U C37A | 0.37
U9A G30C G36U G44U | 0.03
U9A G30U A41C U43C | 0.02
U9A G30U C31U U34G G36A U38A C45A | 0.07
U9A G30U U34C C46G | 0.08
U9A G33A C37A | 0.09
U9A G35A C42G | 0.01
U9A G35A C42U | 0.24
U9A G35C C37G A39G | 0.11
U9A G36C G44C | 0.01
U9A G40A U43A | 0.17
U9A G44A C45A | 0.11

Variant | self-cleavage
U9A U20A A26C G27U U32C G40U | 0.07
U9A U20A A39G C42G U43C G44C | 0.01
U9A U20A C23A | 0.02
U9A U20A U43C C45U | 0.04
U9A U20C C23A G29U U38A C45U C46A | 0
U9A U20C C31A | 0.02
U9A U20C C31U | 0.1
U9A U20C G36A | 0.17
U9A U20C G44A | 0.05
U9A U20C U28C G29U | 0.06
U9A U20G A25U | 0.06
U9A U20G A26G | 0.42
U9A U28G A41U | 0.3
U9A U28G G29U C37U G40U U43C C46U | 0.02
U9A U32C G44U | 0.15
U9A U34A C37U | 0.08
U9A U34A G36A | 0.08
U9A U34A G36A A39G | 0.26
U9A U34G A41C | 0.05
U9A U34G C42A | 0.05
U9A U34G C45A | 0.1
U9C A11C A12C C18U G29C | 0
U9C A11C A12G | 0.01
